# Experimental data taken from PubChem BioAssay AID686978 (National Center for Advancing Translational Sciences (NCATS), 2013).
# Hit rate of the full screen: of about 420,000 compounds, about 64,000 (15%) were called active. This list was built around the results that the source calls inconclusive (neither active nor inactive); the mix of calls is not that of the screen. Calls follow the shape of the dose curve; as a rule, active = well fitted inhibition curve with a large enough effect; inconclusive = small, poorly fitted or top-dose-only effect; inactive = flat fitted curve, though single readings scatter. Potencies of inconclusive entries are left out as doubtful fits.
# Assay: qHTS for Inhibitors of human tyrosyl-DNA phosphodiesterase 1 (TDP1): qHTS in cells in absence of CPT; also: nearly all actives have a fitted effect of over 55% in size
# Conditions: DT40 Tdp1-/- hTDP1 cells, no CPT, ATP luminescence, 48 h; activity change, negative = growth inhibition: at 46.2 µM (top of the series)
# Outline: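 Growth of hTDP1-complemented DT40 Tdp1-knockout cells is measured by ATP luminescence after at least 48 hr compound exposure at 37 °C, with DMSO substituting for the 20 nM CPT used in the parallel screen.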
# % is scaled to controls: 0 for no effect and ±100 for the full control effect; potency is read from the fitted curve at half-maximal effect; tags tell the direction and shape of the fitted curve.
SMILES,Potency,"activity change, negative = growth inhibition"
CC1(C)CC(NC(=O)C2CCN(S(=O)(=O)c3ccccc3C(F)(F)F)CC2)CC(C)(C)N1,inactive,–
Cc1[nH]nc2c(=S)[nH]c(=O)[nH]c12,"inconclusive [inhibitor, single point]",–
CN(C)C(=O)c1cccc(-c2cnc3c(NC=O)cc(-c4ccc(N(C)C)cc4)cn23)c1,"inconclusive [inhibitor, single point]",–
CCOC(=O)C1=CCC(c2cccc(Cl)c2)N(S(=O)(=O)c2ccc(C)cc2)C1 (configuration not stated),active: 11.6 µM,–
CC1=C(C(N)=O)C(c2ccc(C)cc2)n2nc(SCc3ccccc3F)nc2N1 (configuration not stated),inactive,–
C/C(=N\NC(=O)CCc1c[nH]c2ccccc12)c1cccc([N+](=O)[O-])c1,"inconclusive [inhibitor, single point]",–
COc1ccccc1N1CCN(C(=O)CSc2nc3ccccc3nc2N2CCCCC2)CC1,"inconclusive [inhibitor, single point]",–
Cc1ccc(N(C)S(=O)(=O)c2cccc(C(=O)NNC(=O)c3ccncc3)c2)cc1,inactive,–
COCCNc1oc(/C=C/c2cccc(OC)c2)nc1S(=O)(=O)c1ccccc1,"inconclusive [inhibitor, single point]",–
N#Cc1ccsc1NC(=O)CCc1ccccc1,active: 20.6 µM,–
CCN(CC)S(=O)(=O)c1cccc(C(=O)Nc2cc3oc4ccccc4c3cc2OC)c1,active: 18.4 µM,–
CCOC(=O)c1[nH]c2ccc(OC)cc2c1NC(=O)c1nonc1C,–,inconclusive: -33.7% [inhibitor]
CCOC(=O)c1sc(NC(=O)CCc2ccc(OC)cc2)nc1C,"inconclusive [inhibitor, partial curve]",–
O=S(=O)(c1ccc(F)cc1)c1nc(-c2ccco2)oc1Nc1ccccc1,"inconclusive [inhibitor, single point]",–
COc1ccc(CCN=C(N)NS(=O)(=O)c2cc(F)ccc2OC)cc1,inactive,–
O=[N+]([O-])c1ccccc1Nc1ccc(O)cc1,"inconclusive [inhibitor, single point]",–
CCOc1cc(C=O)ccc1OS(=O)(=O)c1ccc(NC(C)=O)cc1,active: 18.4 µM,–
O=C(NCCOc1ccccc1)C1=CC=CN2CCS(=O)(=O)N=C12,inactive,–
O=C(/C=C/c1ccccc1)c1ccc2ccccc2c1,active: 16.4 µM,–
Cc1ccc2cc(C#N)c(N3CCCN(C(=O)C4CCCO4)CC3)nc2c1C (configuration not stated),"inconclusive [inhibitor, single point]",–
CCOc1ccc(C(=O)CCC(=O)Nc2ccc(C)c(S(=O)(=O)N3CCCCC3)c2)cc1,active: 16.4 µM,–
COc1cc(C(=O)Nc2cccnc2)cc(OC)c1OC,inactive,–
NS(=O)(=O)c1ccc(CCNC(=O)CCC(=O)c2cccs2)cc1,inactive,–
CCN(CC)c1ccc(C=C2C(=O)OC3(CCCC3)OC2=O)cc1,inactive,–

SMILES,Potency,"activity change, negative = growth inhibition"
Cc1nc(C)n(CCNS(=O)(=O)c2ccc(C)c(C)c2)n1,inactive,–
CCN(Cc1ccccc1)S(=O)(=O)c1ccc(C(=O)N(CCCN(C)C)c2nc3c(F)cccc3s2)cc1,"inconclusive [inhibitor, single point]",–
CC(=O)N1c2ccc(S(=O)(=O)NCCc3ccc(Cl)cc3)cc2CC1C (configuration not stated),"inconclusive [inhibitor, single point]",–
CC(=O)Nc1ccccc1-c1nc2ccccc2n(CC(=O)c2ccc(Br)cc2)c1=O,"inconclusive [inhibitor, single point]",–
CCOC(=O)c1cccc(-n2c(C)nc3ccccc3c2=O)c1,inactive,–
Cc1cc(C)cc(NC2=C(c3ccccc3)C(=O)c3ccccc32)c1,"inconclusive [inhibitor, single point]",–
C[C@@H]1CCCCO[C@H](CN(C)C(=O)Nc2cccc3ccccc23)[C@@H](C)CN([C@H](C)CO)C(=O)c2cc(N(C)C)ccc2O1,active: 9.2 µM,–
CCOC(=O)C1CCCN(C(=O)Cn2ncc3c(C)n(Cc4ccccc4F)c(C)c3c2=O)C1 (configuration not stated),active: 18.4 µM,–
CCc1c(C)nc(SCC(=O)N2CCCCC2CC)[nH]c1=O (configuration not stated),"inconclusive [inhibitor, single point]",–
CCOc1ncccc1C(=O)OC(C)C(=O)Nc1ccc(CC)cc1 (configuration not stated),inactive,–
COc1ccc(S(=O)(=O)N2CCN(CC(=O)NCCc3cccs3)CC2)cc1,inactive,–
O=C(O)c1ccc2nc(-c3ccccc3)c(-c3ccccc3)nc2c1,inactive,–
COc1cccc(NC(=O)N2CCc3nc(NCc4cccc(Oc5ccccc5)c4)ncc3C2)c1,active: 20.6 µM,–
CC(C(=O)c1ccc(-c2ccccc2)cc1)[n+]1cccc(Br)c1 (configuration not stated),"inconclusive [inhibitor, partial curve]",–
NS(=O)(=O)c1ccc(CCNc2ncnc3c2c(-c2ccccc2)cn3-c2ccc(F)cc2)cc1,"inconclusive [inhibitor, single point]",–
CCOc1cc(C(=O)N(C)CC(=O)Nc2cccc(F)c2)ccc1OCC(=O)N1CCCCC1,"inconclusive [inhibitor, partial curve, poor fit]",–
O=C(Oc1ccccc1N1C(=O)C2CCCCC2C1=O)c1ccccc1 (configuration not stated),"inconclusive [inhibitor, partial curve, poor fit]",–
CC(C)N(C(=O)Cc1ccccc1[N+](=O)[O-])C(C)C,inactive,–
COc1cc(-c2nnc(-c3ccc(S(=O)(=O)c4ccccc4)cc3)o2)cc(OC)c1OC,active: 11.6 µM,–
COC(=O)CNC(c1ccccc1)c1cc(Br)ccc1NC(=O)c1ccccc1 (configuration not stated),"inconclusive [inhibitor, single point]",–
O=C(CCCNS(=O)(=O)c1cccs1)N1CCN(c2cccc(Cl)c2)CC1,"inconclusive [inhibitor, partial curve]",–
CCOc1ccc(N2CC(C(=O)N/N=C/c3sccc3C)CC2=O)cc1 (configuration not stated),"inconclusive [inhibitor, single point]",–
CCOC(=O)[C@]12CCCC=C1N(CCC1=CCCCC1)C(=O)[C@H](CC(=O)N1CCN(C(=O)c3ccco3)CC1)C2,"inconclusive [inhibitor, single point]",–
